Data published in PubChem BioAssay AID485344 (National Center for Advancing Translational Sciences (NCATS), 2010).
Values joined by “and” are separate entries in the source; they are usually repeats but may differ in a detail not shown here. Identical values can stand only once. The campaign covered roughly 340,000 compounds. About 6,900 (2%) were called active. Rule as the data show it: active = inhibition above about 30%; inactive = below that, where a call was filed. The list shows a part of the results, in another mix than the full data. Entries without a call were filed so in the source. More than one record can exist for a structure, and the calls need not agree.

Target: D(2) dopamine receptor (Homo sapiens) (UniProt P14416)
Assay: HTS Assay for Allosteric Antagonists of the Human D2 Dopamine Receptor: Primary Screen for Antagonists; also: 0% is about no effect
Conditions: HEK293 TREx D2 cells, calcium flux, dopamine EC80; at 10 µM; stronger effect = higher value
Procedure, shortened: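 Calcium mobilization kinetics were recorded at 1 s intervals in tetracycline-induced HEK293 T-REx D2 cells, first for 180 s after compound addition and then 180 s after EC80 dopamine.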

Chain of UniProt P14416 (P14416 whole entry, looked up): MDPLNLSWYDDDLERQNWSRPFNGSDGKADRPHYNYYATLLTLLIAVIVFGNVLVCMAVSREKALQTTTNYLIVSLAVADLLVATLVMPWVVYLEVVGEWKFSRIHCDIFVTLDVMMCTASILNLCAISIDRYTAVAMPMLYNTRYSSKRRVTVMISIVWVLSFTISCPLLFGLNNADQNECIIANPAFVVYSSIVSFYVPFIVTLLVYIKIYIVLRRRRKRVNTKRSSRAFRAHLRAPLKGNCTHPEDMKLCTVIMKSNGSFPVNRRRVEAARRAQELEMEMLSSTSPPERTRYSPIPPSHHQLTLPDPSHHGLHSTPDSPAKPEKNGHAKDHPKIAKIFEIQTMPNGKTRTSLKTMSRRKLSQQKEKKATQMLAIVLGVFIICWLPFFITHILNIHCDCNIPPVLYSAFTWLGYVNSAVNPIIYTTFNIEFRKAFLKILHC

Compound	inhibition
Cc1ccc(C2N=C(N)Nc3nc4ccccc4n32)cc1 (stereo unspecified)	-21.1%
CCN(CC)c1ccc(C(=O)NCc2nc3cccnc3n2Cc2ccc(C)cc2)cc1	15.9%
Cc1cccc(NC(=O)Cn2cc(S(=O)(=O)N3CCCC3)c(S(=O)(=O)N3CCCC3)c2)c1C	-0.341%
CCOC(=O)c1cccc(NC(=O)CCn2c(=O)oc3ccccc32)c1	9.62% and active: 32.1%
Cc1c(C)c2c(cc(C)c3c(-c4ccc(Br)cc4)coc32)oc1=O	-10%
CCC(Oc1ccccc1)C(=O)Nc1cccc(OCc2cc(=O)n3cccc(C)c3n2)c1 (stereo unspecified)	10.6%
CC(=O)c1ccc(NC(=O)Cn2c(=O)cc(C)c3c(C)nn(-c4cccc(F)c4)c32)cc1	6.14%
COc1ccc(S(=O)(=O)c2c(Nc3cccc(Cl)c3)sc(C(=O)c3ccccc3)c2N)cc1	-2.85%
COc1ccc(/C=C/c2nc(C#N)c(N3CCCCC3)o2)cc1OC	-1.68%
CCc1ccc(NC(=O)Cn2ncn3c(cc4ccccc43)c2=O)cc1	5%
Cc1ccc2c(=O)cc(C(=O)Nc3c(C)cccc3C)oc2c1	4.23%
O=C(CCCCCn1c(=O)[nH]c2ccccc2c1=O)NCCc1c[nH]c2ccccc12	active: 39.1%
Cc1cc2c(cc1S(=O)(=O)NCc1ccc(F)cc1)OCCN2C	12.9%
CCCCN(Cc1cc2cc(C)ccc2[nH]c1=O)C(=O)c1cccc(Cl)c1	-3.15%
Cc1nc2c3ccccc3nc(NNC(=O)CCC(=O)N3CCN(c4ccc(F)cc4)CC3)n2n1	4.83%
CCOc1ccc(CCNC(=O)CSCC(=O)Nc2ccc(OC)cc2)cc1OCC	active: 31.4%
Cc1cccc(NC(=O)CSc2cn(CC(=O)N3CCOCC3)c3ccccc23)c1C	4.6%
Cc1ccc2nc(COc3ccccc3NC(=O)Nc3ccc(F)c(Cl)c3)cc(=O)n2c1	-2.15%
CCC(=O)N1CCc2cc(Br)cc(S(=O)(=O)N3CCCC(C(=O)NCc4ccc(C)cc4)C3)c21 (stereo unspecified)	15.3%
Cc1ccc(-n2c3nc(=O)n(C)c(=O)c-3cc3ccccc32)c(C)c1	-19.8%
COc1ccc(NC(=O)C2CCN(C(=O)Nc3ccccc3)CC2)cc1S(=O)(=O)N(C)C	active: 77.2%
CCc1cccc(CC)c1NC(=O)CN(C)S(=O)(=O)c1ccc2c(c1)n(C)c(=O)c(=O)n2C	-5.49%
CSc1nn(Cc2ccc(F)cc2)c(N(C(C)=O)C(C)=O)c1S(=O)(=O)c1ccccc1	-5.53%
Cc1ccc(C(=O)CSc2nc(C)cc(C)c2C(=O)Nc2cccc(C)c2)cc1	9.69%

Compound	inhibition
COc1cccc(CNC(=O)C2CCCN(c3nnc(-n4c(C)ccc4C)s3)C2)c1OC (stereo unspecified)	-1.48%
Cc1ccc(C(=O)c2oc3ccccc3c2NC(=O)COc2ccc(Cl)c(C)c2)cc1	3.91%
COc1cccc(NC(=O)Cn2c(=O)oc3cc(S(=O)(=O)N4CCCCC4)ccc32)c1	22%
Cc1ccc(-n2nnc3c(SCC(=O)NCC4CCCO4)ncnc32)cc1 (stereo unspecified)	active: 46.4%
Cc1c(C)n(Cc2ccc(Cl)cc2)c2ccc(C(=O)N3CCN(c4ccccc4F)CC3)cc12	10.9%
COc1cc(C2CC(=O)Nc3cc4c(cc32)OCO4)cc(OC)c1O (stereo unspecified)	-3.56%
CC(C)COc1ccc(C(=O)N2CCCCC2CCN2CCOCC2)cc1 (stereo unspecified)	-5.96%
COCCc1ccc(OCC(O)CNC(C)C)cc1 (stereo unspecified)	active: 33.9%
COc1ccc(OC)c(CCNC(=O)c2nc(-c3ccc(Cl)cc3)n3c2CCCCC3)c1	1.8%
CCOc1ccccc1Nc1sc(C(=O)c2ccccc2)c(N)c1C(=O)Nc1ccc(F)cc1	0.0544%
Cc1ccc(Cn2ccnc2SCC(=O)NCc2ccccc2)cc1	20%
Cc1nc(-c2ccc(Cl)cc2)sc1CCNC(=O)C(=O)Nc1ccc2c(c1)OCO2	17.7%
CSc1ccc(CCNC(=O)Cn2nc(C)n3c(cc4sccc43)c2=O)cc1	-9.26%
Cc1nn(CC(=O)NC2CC2)c(=O)c2cc3cc(F)ccc3n12	10.3%
Cc1ccc(NC(=O)c2ccc3c(c2)NC(=O)c2ccccc2S3)c(Cl)c1	21.6%
CCOC(=O)c1cccc(NC(=O)Cn2ncc3c(=O)oc4ccccc4c32)c1	1.5%
Cn1c(=O)c2c(nc(SCC(=O)Nc3ccccc3F)n2Cc2ccccc2F)n(C)c1=O	18.8%
COc1ccc(CNC(=O)C(=O)NCC(c2ccco2)S(=O)(=O)c2ccc(Cl)cc2)cc1 (stereo unspecified)	-15.3%
CCOC(=O)c1c(C)oc2ncnc(Nc3cccc(C(F)(F)F)c3)c12	9.44%
Cc1ccc(OCC(=O)Nc2ccc(OCc3cc(=O)n4c(C)csc4n3)cc2)cc1C	1.29%
O=c1oc2ccccc2cc1-c1cn2cc(Cc3ccc(F)cc3)sc2n1	22.3%
CCc1ccc(NC(=O)CC(NCc2cccnc2)C(=O)O)cc1 (stereo unspecified)	-8.42%
CCOC(=O)c1cc(NC(=O)c2ccc(Cl)cc2)c(=O)n2c1oc1ccc(Cl)cc12	active: 31.5%
c1ccc(CCN=C2CCCc3c2[nH]c2ccccc32)cc1	active: 58.1%

Compound	inhibition
CCOC(=O)c1c(NC(=O)Cc2coc3ccc(CC)cc23)sc2c1CCC2	-8%
CCOc1ccc2nc(N3CCCC(C(=O)NCCc4ccc(Cl)cc4)C3)sc2c1 (stereo unspecified)	5.7%
CC(=O)OC1C(N2CCCCC2)c2c(ccc(/C=C/C(=O)N3CCCCC3)c2O)OC1(C)C (stereo unspecified)	active: 30.4%
CC(C)C(=O)Nc1nnc(S(=O)(=O)N2CCc3ccccc32)s1	11.4%
Cc1cccc(N2CCN(c3ccc4cc(S(=O)(=O)N5CCC(C)CC5)ccc4n3)CC2)c1C	2.55%
CCOc1ccc(NC(=O)Cn2nc(Cc3cccnc3)c3ccccc3c2=O)cc1	4.49%
COc1ccccc1NC(=O)N1CCN(c2ccc3nnc(-c4ccc(F)cc4)n3n2)CC1	-1.53%
COc1ccc(N2CCN(CCCNC(=O)c3c(C)nn(-c4ccc(F)cc4)c3-n3cccc3)CC2)cc1	15.1%
COc1ccc(S(=O)(=O)N(CC(=O)NC(C)c2ccccc2)c2ccc(C)cc2)cc1OC (stereo unspecified)	15.3%
CCc1ccc(NC(=O)Cn2nnc(-c3ccccc3N)n2)cc1	-9.06%
COc1ccccc1N1CCN(C(=O)c2cc3c(=O)n(Cc4cccs4)ccc3nc2C)CC1	-0.734%
CCOC(=O)N1CCc2c(sc3c2c(=O)n(-c2ccc(CC)cc2)c(=O)n3Cc2ccc(F)cc2Cl)C1	9.62%
CCOc1ccccc1-c1noc(CSc2nnc(-c3ccccc3)n2-c2ccc(OC)cc2)n1	-7.45%
CN(Cc1nc(-c2ccc(Cl)cc2)no1)S(=O)(=O)c1ccccc1	-5.63%
NC(=O)C1C(c2ccccc2)=C1c1ccccc1	active: 38.4%
CC(C)c1ccc(C2CC(=O)Nc3cc4c(cc32)OCCO4)cc1 (stereo unspecified)	8.9%
Cc1ccccc1Cn1ccn(-c2ccc(F)c(F)c2)c(=O)c1=O	24.4%
CCOC(=O)CSc1nc2ccccc2c(=O)n1-c1ccc(C(=O)NCCOC)cc1	4.07%
Cc1ccc(N2C(=O)CS(=O)(=O)C23C(=O)Nc2ccccc23)cc1C (stereo unspecified)	3.67%
O=C(Nc1ccccc1C(F)(F)F)N1CCOc2ccc(Cl)cc21	9.67%
Cc1nn(-c2ccccc2)c(OC(=O)c2ccccc2)c1S(=O)(=O)c1ccccc1	1.6%
COc1c(Cl)cc(C(=O)Nc2cc(-c3nc4ccccc4[nH]3)ccc2C)cc1Cl	1.91%
Cc1ccc2oc(C(=O)Nc3c(C(=O)Nc4cccc(Cl)c4)oc4ccccc34)cc(=O)c2c1	1.17%
C/C(CC(=O)Nc1ccc2c(c1)OCCO2)=N\NC(=O)C(=O)Nc1ccccc1C	active: 32%

Compound	inhibition
COc1ccc(N2CCN(C(=O)Nc3cn(CC(C)C)c(=O)c4ccccc34)CC2)cc1	-2.59%
Cc1c(Cl)cccc1NC(=O)c1cc(-c2ccc3c(c2)OCO3)on1	-14.7%
O=C(NCc1cccs1)c1ccc2c(c1)sc1nc(-c3ccc(F)cc3)cn12	-10.8%
O=C(Nc1cc(Cl)ccc1Cl)c1ccc2c(c1)N(Cc1cccc(Cl)c1)C(=O)c1ccccc1S2=O (stereo unspecified)	4.1%
Cc1ccc(Nc2c(-c3ccccn3)nc3ccc(Br)cn23)cc1	-10.6%
CCC(=O)N1CCc2cc(Br)cc(S(=O)(=O)N3CCCC(C(=O)Nc4ccc(C)c(F)c4)C3)c21 (stereo unspecified)	-16.1%
Cc1ccc(C(=O)N(Cc2ccc(N(C)C)cc2)CC2CCCO2)cc1 (stereo unspecified)	-3.56%
Cc1nn(C(C)C(=O)NCc2ccc(OC(C)C)cc2)c(=O)c2c1sc1ccccc12 (stereo unspecified)	9.55%
CCCCNC(=O)CCC(=O)NNc1nc2ccccc2c2nc(C)nn12	-4.98%
CC(CCc1ccccc1)NC(=O)CSc1n[nH]c(-c2ccccc2)n1 (stereo unspecified)	12.3%
Cc1ccc2ccc3cc(C(=O)N4CCN(c5ccccc5F)CC4)nc3c2[nH]1	10.3%
COc1ccccc1NC(=O)c1c(-c2ccc(C)cc2)nnc2ccccc12	-3.97%
CCC(=O)N1CCc2cc(S(=O)(=O)NC(Cc3ccccc3)C(=O)NCc3ccccc3)ccc21 (stereo unspecified)	17.6%
CCN(C(=O)CN1C(=O)c2ccccc2Sc2ccc(C(=O)OC)cc21)c1cccc(C)c1	26.5%
CC(=O)c1ccc(NC(=O)CN2CCN(c3ccccc3)CC2)cc1	active: 36.7%
CCOC(=O)c1csc(NC(=O)C(C)(C)C)n1	active: 40.7%
O=C(N/N=C/c1ccco1)c1cc(-c2ccccc2)nc2ccccc12	active: 36.9%
CCCCNc1nc2c(S(=O)(=O)c3ccc(Br)cc3)nnn2c2ccsc12	16.5%
Cc1ccc(NC(=O)Cn2c(=O)n(Cc3nc(-c4ccccc4)no3)c(=O)c3ccccc32)c(C)c1	1.2%
O=C(Cn1ncc2c3ccccc3n(Cc3ccccc3)c2c1=O)NCCc1ccc(Cl)cc1	-5.29%
COc1ccc(S(=O)(=O)N2CCC(c3nc4ccccc4s3)CC2)cc1OC	2.53%
CCCNC(=O)c1ccc2c(c1)N=C(CCC)c1ccccc1S2	-1.95%
COc1cccc(NC(=O)Cn2nc(N3CCN(c4ccccc4)CC3)ccc2=O)c1	-9.3%
O=C(Cn1nc2c(cc1=O)CCCC2)NCc1ccc(Cl)cc1	8.23%
